SMILES strings stand for the structures.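 Each compound was tested at five concentrations against cells in 96-well plates for 48 hours. At the GI50, growth is halved. TGI: concentration producing complete growth inhibition.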

Here are results for five molecules from PubChem BioAssay (NCI).

The subject of the test is NCI-H322M lung. As to the kind of experiment: NCI anticancer screen, dose series, 48 h.
For the molecule `CCCn1c(=O)c2[nH]c(-c3ccc(OCc4nc5ccc(F)cc5[nH]4)cc3)nc2n(CCC)c1=O`, the GI50 is 22.5 µM and the TGI is more than 100 µM.
For `O=C(COc1ccc(NC(=O)Nc2ccc(Cl)cc2)cc1)N=Nc1c(O)[nH]c2ccc([N+](=O)[O-])cc12`, the GI50 is 5.26 µM and the TGI was determined as 37.7 µM.
In the case of `CCCS(=O)(=O)c1oc(-c2ccc(F)cc2)nc1S(=O)(=O)c1ccc(F)cc1`, the GI50 was 14.4 µM and the TGI was 27.5 µM.
On the same counts, the results for `CN1C(=O)N(C)C2SC(N/N=C/c3cccs3)=NC21` (stereo not given) are 25.5 µM and more than 100 µM.
With `COc1ccc2[nH]cc(-c3cc(N)n4nc(-c5c[nH]c6ccccc56)cc4n3)c2c1`, the GI50 was 4.25 µM and the TGI was determined as 16.6 µM.
